This note sets out measurements from a collection of fitness landscapes (doi:10.1016/j.celrep.2020.107928).

First the molecules themselves.
B1: Caulobacter ParB omega fusion; a variant is named by its letters at X, in order, B8GW30 (parent)
chain: MESVVVGEPGMSEGRRGLGRGLSALLGEVDAAPAQAPGEQLGGSREAPIEILQRNPDQPRRTFREEDLEDLSNSIREKGVLQPILVRPSPDTAGEYQIVAGERAWRAAQRAGLKTVPIMVRELDDLAVLEIGIIENVQRADLNVLEEALSYKVLMEKFERTQENIAQTIGKSXSHVANXMRLLXLPDEVQSYLVSGELTAXHARAIAAAADPVALAKQIIEGGLSVRETEALARKAPNLSAGKSKGGRPPRVKDTDTQALESDLSSVLGLDVSIDHRGSTGTLTITYATLEQLDDLCNRLTRGI

Whole data set: some 81,000 sequences, median “one-hybrid fitness for binding NBS DNA” near -0.1, cut for the highest 2% near 0.36. The list shows a part of the results.

In this assay the parent is B1. In words: one-hybrid fitness for binding NBS DNA (the Noc-binding site; scaled: cognate 1, non-cognate 0); higher = stronger binding. The conditions noted are these: with NBS DNA site. In short, it runs like this: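 Fitness here means the log change in variant-to-wild-type read ratio between plasmids sequenced before and after selection. That scale was set so cognate equals 1 and non-cognate equals 0. The selection was a bacterial one-hybrid screen of Caulobacter ParB libraries, four specificity codons randomised, in E. coli USO carrying a HIS3 reporter with the site 19 bp from the promoter, grown 48 hours at 37°C on M9-minus-histidine with 0.1 mM IPTG and 5 mM 3-AT.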
As for VVSA, the “one-hybrid fitness for binding NBS DNA” value was not above 0.2.
In the case of AGYC, the “one-hybrid fitness for binding NBS DNA” value is not above 0.2.
In the case of LKDM it was not above 0.2; in that of TKFR, not above 0.2.
In the case of VSVV it was not above 0.2.
In the case of AWTE it was not above 0.2.
Consider CNGT, for which the “one-hybrid fitness for binding NBS DNA” value was not above 0.2.
In the case of CITS it was not above 0.2; in that of WCTS, not above 0.2; in that of SHCT, not above 0.2.
In the case of QCQW it was not above 0.2; in that of GQTT, not above 0.2; in that of AHTG, not above 0.2.
In the case of KKPL it was not above 0.2.
Take PWNH: the “one-hybrid fitness for binding NBS DNA” value is not above 0.2.
In the case of QYRR it was 0.979; in that of IAAT, not above 0.2.
In the case of WKPT it was not above 0.2; in that of NLAS, not above 0.2; in that of YAFA, not above 0.2.
As for TKMA, the “one-hybrid fitness for binding NBS DNA” value is not above 0.2.
In the case of AKIG it was not above 0.2.
On to PRNQ, for which the “one-hybrid fitness for binding NBS DNA” value was not above 0.2.
In the case of QPTT it was not above 0.2; in that of QQAY, 0.228.
In the case of QACL it was not above 0.2.
In the case of QWAE, the “one-hybrid fitness for binding NBS DNA” value was not above 0.2.
In the case of ARIT it was not above 0.2; in that of GVRV, not above 0.2.
YPAM: the “one-hybrid fitness for binding NBS DNA” value is not above 0.2.
Take RQQV: the “one-hybrid fitness for binding NBS DNA” value was not above 0.2.
In the case of GITG it was not above 0.2; in that of RLTL, not above 0.2; in that of PKVS, not above 0.2.
As for RTDK, the “one-hybrid fitness for binding NBS DNA” value is not above 0.2.
In the case of SLNN, the “one-hybrid fitness for binding NBS DNA” value was not above 0.2.
In the case of SVLW it was not above 0.2.
In the case of RKCR it was 0.552.
Turning to IVWV, the “one-hybrid fitness for binding NBS DNA” value is not above 0.2.
In the case of QKKV it was 0.406; in that of WNPR, not above 0.2.
In the case of PALG it was 0.248; in that of LCGD, not above 0.2.
In the case of NKRL it was not above 0.2; in that of SMLD, not above 0.2.
Regarding KRWV, the “one-hybrid fitness for binding NBS DNA” value was not above 0.2.
In the case of MVCR it was not above 0.2; in that of PEPL, not above 0.2; in that of DKCS, not above 0.2.
In the case of YYWR it was not above 0.2; in that of QGHE, not above 0.2; in that of MTIP, not above 0.2.
In the case of DTLG it was not above 0.2; in that of QHYD, not above 0.2; in that of VVGG, not above 0.2.
On to MSWC, for which the “one-hybrid fitness for binding NBS DNA” value was not above 0.2.
With FTIR, the “one-hybrid fitness for binding NBS DNA” value is not above 0.2.
In the case of RVFM it was not above 0.2; in that of PYRY, not above 0.2; in that of DKVY, not above 0.2.
In the case of GTHR it was not above 0.2.
Take HARA: the “one-hybrid fitness for binding NBS DNA” value was not above 0.2.
Turning to APES, the “one-hybrid fitness for binding NBS DNA” value was not above 0.2.
In the case of RVPN it was not above 0.2.
In the case of CEHR it was not above 0.2; in that of QTFW, not above 0.2.
In the case of SPDY it was not above 0.2; in that of YPEI, not above 0.2.
For HYMF, the “one-hybrid fitness for binding NBS DNA” value was not above 0.2.
In the case of SDMT it was not above 0.2; in that of RMTP, not above 0.2; in that of QLPC, not above 0.2.
In the case of RCGR it was 0.523; in that of LSDL, not above 0.2; in that of VQLM, not above 0.2.
With QYKA, the “one-hybrid fitness for binding NBS DNA” value stood at 0.531.
In the case of DRTW it was not above 0.2; in that of ALMR, not above 0.2; in that of GSRN, not above 0.2.
In the case of MHLF it was not above 0.2; in that of TPVP, not above 0.2.
As for GKEC, the “one-hybrid fitness for binding NBS DNA” value was not above 0.2.
As to HLCP, the “one-hybrid fitness for binding NBS DNA” value is not above 0.2.
For the variant QMWS, the “one-hybrid fitness for binding NBS DNA” value is 0.261.
Regarding GVFS, the “one-hybrid fitness for binding NBS DNA” value is not above 0.2.
In the case of LMTV it was not above 0.2; in that of IDTI, not above 0.2; in that of QSFP, not above 0.2.
In the case of LTGN it was not above 0.2; in that of LKWR, not above 0.2; in that of YSQS, not above 0.2.
In the case of LSWT it was not above 0.2.
For MNRS, the “one-hybrid fitness for binding NBS DNA” value is not above 0.2.
In the case of VNSC it was not above 0.2; in that of RMID, not above 0.2; in that of AMSS, not above 0.2.
In the case of VKAR it was not above 0.2; in that of LIYT, not above 0.2; in that of KHNG, not above 0.2.
Consider CHLN, for which the “one-hybrid fitness for binding NBS DNA” value was not above 0.2.
In the case of IETS it was not above 0.2.
In the case of DDIT it was not above 0.2; in that of TFQS, not above 0.2.
In the case of RPDL it was not above 0.2.
Turning to HADL, the “one-hybrid fitness for binding NBS DNA” value is not above 0.2.
In the case of RSRC it was 0.355; in that of RPLQ, not above 0.2; in that of EPDR, not above 0.2.
In the case of VMTF it was not above 0.2; in that of IYTA, not above 0.2.
For TNAM, the “one-hybrid fitness for binding NBS DNA” value is not above 0.2.
In the case of PLAQ it was not above 0.2; in that of PFHS, not above 0.2.
In the case of GYMF it was not above 0.2; in that of QLRR, 0.943.
Regarding DDRL, the “one-hybrid fitness for binding NBS DNA” value is not above 0.2.
In the case of NERL it was not above 0.2.
In the case of KNKM it was not above 0.2; in that of YPDW, not above 0.2; in that of AQSE, not above 0.2.
In the case of TTRH it was not above 0.2.
In the case of MHPG, the “one-hybrid fitness for binding NBS DNA” value is not above 0.2.
Take FGGI: the “one-hybrid fitness for binding NBS DNA” value is not above 0.2.
In the case of MIMG it was not above 0.2.
For the variant GANL, the “one-hybrid fitness for binding NBS DNA” value is not above 0.2.
In the case of ASPK, the “one-hybrid fitness for binding NBS DNA” value is not above 0.2.
As for RMRH, the “one-hybrid fitness for binding NBS DNA” value turned out to be 0.362.
In the case of NRMY it was not above 0.2; in that of PITC, not above 0.2.
For GWFS, the “one-hybrid fitness for binding NBS DNA” value was not above 0.2.
As to TEWV, the “one-hybrid fitness for binding NBS DNA” value was not above 0.2.
In the case of LYAF it was not above 0.2; in that of RKAQ, not above 0.2; in that of PRIW, not above 0.2.
In the case of CRTD it was not above 0.2.
In the case of VCLK it was not above 0.2.
As to GSYS, the “one-hybrid fitness for binding NBS DNA” value was not above 0.2.
In the case of VSRY it was not above 0.2.
As for KAGL, the “one-hybrid fitness for binding NBS DNA” value was not above 0.2.
Consider PFTY, for which the “one-hybrid fitness for binding NBS DNA” value is not above 0.2.
In the case of SPKS, the “one-hybrid fitness for binding NBS DNA” value was not above 0.2.
In the case of CKYG it was not above 0.2; in that of TCDS, not above 0.2.
As for WVTG, the “one-hybrid fitness for binding NBS DNA” value was not above 0.2.
As to RMSL, the “one-hybrid fitness for binding NBS DNA” value was not above 0.2.
In the case of KQRT it was 0.225; in that of YDLR, not above 0.2; in that of YGAT, not above 0.2.
In the case of RCTN it was not above 0.2.
In the case of GFEG it was not above 0.2.
As for QPRK, the “one-hybrid fitness for binding NBS DNA” value was not above 0.2.
In the case of QGTS it was not above 0.2.
In the case of QMFC it was not above 0.2.
In the case of YAFL it was not above 0.2; in that of PKGR, not above 0.2.
On to QCPF, for which the “one-hybrid fitness for binding NBS DNA” value was not above 0.2.
In the case of DVPT it was not above 0.2.
In the case of EVYD it was not above 0.2; in that of HNNP, not above 0.2; in that of KHAR, not above 0.2.
In the case of WVEL it was not above 0.2; in that of QMEF, not above 0.2.
As for NILF, the “one-hybrid fitness for binding NBS DNA” value is not above 0.2.
SVKD: the “one-hybrid fitness for binding NBS DNA” value was not above 0.2.
In the case of KDKT it was not above 0.2; in that of RQGV, not above 0.2.
On to KQAT, for which the “one-hybrid fitness for binding NBS DNA” value was not above 0.2.
Regarding GPRV, the “one-hybrid fitness for binding NBS DNA” value was not above 0.2.
In the case of MHRY it was not above 0.2; in that of SLQS, not above 0.2.
In the case of NMAL it was not above 0.2; in that of NRRF, not above 0.2; in that of GSPL, not above 0.2.
In the case of RVEM it was not above 0.2.
LPID: the “one-hybrid fitness for binding NBS DNA” value was not above 0.2.
In the case of RPMN it was not above 0.2.
In the case of QDDA it was not above 0.2; in that of MFSF, not above 0.2.
In the case of QIEW it was not above 0.2; in that of HLPP, not above 0.2; in that of WRYA, not above 0.2.
Turning to VMPS, the “one-hybrid fitness for binding NBS DNA” value is not above 0.2.
For LCSG, the “one-hybrid fitness for binding NBS DNA” value is not above 0.2.
In the case of VGME, the “one-hybrid fitness for binding NBS DNA” value was not above 0.2.
In the case of RKST it was 0.639; in that of AFEY, not above 0.2; in that of DYSA, not above 0.2.
In the case of AKCK it was not above 0.2; in that of SRPI, not above 0.2.
As to RIMI, the “one-hybrid fitness for binding NBS DNA” value is not above 0.2.
In the case of GRHG it was not above 0.2; in that of RAMI, not above 0.2; in that of TVSM, not above 0.2.
Turning to MSAT, the “one-hybrid fitness for binding NBS DNA” value is not above 0.2.
FACS: the “one-hybrid fitness for binding NBS DNA” value is not above 0.2.
